Reference: the supplement of paper PMC4967469
By IC50 is meant the dose at which the fit gives 50% viability; a limit (>, <) means that the fit lies beyond the doses tested. AUC sums up the same curve from the lowest dose to the 256-fold higher top dose; values near 1 show little effect. For part of these data: The top dose, if marked as inferred, was derived from the fitted curves, not read from the paper.

How the values were obtained:
Assay in all cases: Viability of human cancer cell lines after 72 h of drug (GDSC screen)
[1] = compound: O=C(/C=C/c1ccccc1)NC(NC(=S)Nc1cccc2cccnc12)C(Cl)(Cl)Cl [Salubrinal]; conditions: top dose 16 µM; top dose inferred
Description: (§1)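 Human cancer cell lines in 384-well plates, medium with 10% serum, drug for 72 h over a 256-fold dose range (nine 2-fold or five 4-fold steps up to the top dose). Adherent lines were fixed and stained with the nucleic acid dye Syto60, suspension lines read with resazurin; signal relative to control wells, capped at 0 and 100%. One two-parameter sigmoid per drug and line, fitted in a mixed model over all curves with the slope shared within a line.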

[2] = compound: CC1(C)CCC(c2ccc(Cl)cc2)=C(CN2CCN(c3ccc(C(=O)NS(=O)(=O)c4ccc(N[C@H](CCN5CCOCC5)CSc5ccccc5)c(S(=O)(=O)C(F)(F)F)c4)cc3)CC2)C1 [ABT-263]; conditions: top dose 2 µM; top dose inferred
Description: as §1

[3] = compound: CC(=O)Nc1nc(C)c(-c2ccc(Cl)c(S(=O)(=O)NCCO)c2)s1 [PIK-93]; conditions: top dose 20 µM
Description: as §1

[4] = compound: COc1cc2ncn(-c3cc(OCc4ccccc4C(F)(F)F)c(C(N)=O)s3)c2cc1OC [GW843682X]; conditions: top dose 0.256 µM
Description: as §1

[5] = compound: Cn1cc(/C=C2\C(=O)Nc3cccnc32)c2ccccc21 [GW 441756]; conditions: top dose 2 µM; top dose inferred
Description: as §1

[6] = compound: COc1cc(/C=C/C(=O)N2CCC=CC2=O)cc(OC)c1OC [piperlongumine]; conditions: top dose 10 µM
Description: as §1

Cell Line	AUC [1]	IC50 [1]	AUC [2]	IC50 [2]	AUC [3]	IC50 [3]	AUC [4]	IC50 [4]	AUC [5]	IC50 [5]	AUC [6]	IC50 [6]
CW-2 (large intestine, adherent)	0.989	> 16 µM	0.977	> 2000 nM	0.938	> 20 µM	0.989	> 256 nM	0.989	> 2000 nM	0.947	> 10 µM
AMO-1 (haematopoietic neoplasm, suspension)	0.942	> 16 µM	0.989	> 2000 nM	0.38	0.617 µM	0.485	14.7 nM	0.936	> 2000 nM	0.769	3.26 µM
OMC-1 (cervix, adherent)	0.978	> 16 µM	0.895	> 2000 nM	0.89	> 20 µM	0.914	> 256 nM	0.947	> 2000 nM	0.81	5.54 µM
MFH-ino (soft tissue, adherent)	0.881	> 16 µM	0.972	> 2000 nM	0.879	> 20 µM	0.59	29.6 nM	0.848	1900 nM	0.706	2.66 µM
NCI-H226 (lung squamous cell carcinoma, adherent)	0.971	> 16 µM	0.987	> 2000 nM	0.812	11.3 µM	0.971	> 256 nM	0.916	> 2000 nM	0.865	9.54 µM
A253 (head and neck, adherent)	0.96	> 16 µM	0.962	> 2000 nM	0.979	> 20 µM	0.705	59.2 nM	0.927	> 2000 nM	0.805	4.88 µM
MLMA (hairy cell leukaemia, semi-adherent)	0.914	> 16 µM	0.866	1810 nM	0.227	0.198 µM	0.636	38.2 nM	0.982	> 2000 nM	0.637	1.5 µM
ARH-77 (myeloma, suspension)	0.923	> 16 µM	0.956	> 2000 nM	0.548	1.68 µM	0.632	36.4 nM	0.988	> 2000 nM	0.785	4.1 µM
OCI-AML3 (acute myeloid leukaemia, suspension)	0.98	> 16 µM	0.984	> 2000 nM	0.324	0.438 µM	0.599	28.7 nM	0.986	> 2000 nM	0.791	3.79 µM
NB5 (neuroblastoma, adherent)	0.979	> 16 µM	0.934	> 2000 nM	0.876	> 20 µM	0.649	41.6 nM	0.986	> 2000 nM	0.798	4.85 µM
HH (T-cell leukaemia, suspension)	0.885	> 16 µM	0.688	505 nM	0.395	0.586 µM	0.725	88 nM	0.966	> 2000 nM	0.734	3.71 µM
no-11 (glioma, adherent)	0.929	> 16 µM	0.883	> 2000 nM	0.904	> 20 µM	0.796	156 nM	0.966	> 2000 nM	0.722	3.18 µM
NCI-H1770 (non-small cell lung carcinoma, suspension)	0.937	> 16 µM	0.515	137 nM	0.909	> 20 µM	0.919	> 256 nM	0.992	> 2000 nM	0.808	4.42 µM
NCI-H82 (small cell lung carcinoma, suspension)	0.932	> 16 µM	0.918	> 2000 nM	0.804	9.37 µM	0.465	12.9 nM	0.988	> 2000 nM	0.934	> 10 µM
CPC-N (small cell lung carcinoma, suspension)	0.981	> 16 µM	0.608	254 nM	0.818	12.7 µM	0.651	43.9 nM	0.971	> 2000 nM	0.696	2.35 µM
SH-4 (melanoma, adherent)	0.89	> 16 µM	0.969	> 2000 nM	0.807	18.2 µM	0.718	95.2 nM	0.957	> 2000 nM	0.666	2.35 µM
RL (B-cell lymphoma, suspension)	0.983	> 16 µM	0.74	567 nM	0.365	0.549 µM	0.985	> 256 nM	0.99	> 2000 nM	0.989	> 10 µM
COR-L95 (small cell lung carcinoma, adherent)	0.952	> 16 µM	0.562	189 nM	0.888	> 20 µM	0.921	> 256 nM	0.895	> 2000 nM	0.929	> 10 µM
KS-1 (glioma, adherent)	0.814	11.5 µM	0.94	> 2000 nM	0.766	9.14 µM	0.598	31.9 nM	0.98	> 2000 nM	0.687	2.39 µM
KM-H2 (Hodgkin lymphoma, suspension)	0.909	> 16 µM	0.955	> 2000 nM	0.884	16 µM	0.474	13.8 nM	0.993	> 2000 nM	0.989	> 10 µM
SF539 (glioma, adherent)	0.987	> 16 µM	0.989	> 2000 nM	0.832	11.1 µM	0.895	> 256 nM	0.988	> 2000 nM	0.592	1.08 µM
